Experimental data: the supplement of paper PMC4466236
Over roughly 33,000 sequences, “E-score (dimensionless, -0.5 to 0.5)” has its median near -0.058; the highest 2% begin near 0.35. Some of the results follow.

Tested on: MvaT
Test: PBM 8-mer E-score (mean of HK and ME arrays) (E-score (dimensionless, -0.5 to 0.5)); higher = stronger relative binding preference; most listed sequences are background and not binding sites
Experimental: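 Protein binding microarray: GST-tagged full-length MvaT (P. aeruginosa PAO1) bound to two universal double-stranded 60-mer arrays (ME and HK), each with a constant 25-mer primer and a variable 35-mer region covering all 8-mers. The 8-mer E-score (rank-based, range -0.5 to 0.5, >0.45 = specific binding) is the mean of the two arrays.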

Row | Sequence | PBM 8-mer E-score
1 | TAACAGAA | 0.0818
2 | ACTGCGGC | -0.113
3 | CGTAACGA | -0.0979
4 | CGTTCGCA | 0.0402
5 | CCGGGTAG | -0.21
6 | ATCTCTCA | 0.0907
7 | GCTGGGAA | -0.00359
8 | TAAGTGTA | 0.262
9 | CACAAGCG | -0.114
10 | GCTCCTGA | -0.239
11 | AATGTTAG | 0.209
12 | ACTGGAAT | 0.118
13 | CGCAGGGC | -0.301
14 | GAGAGAAC | -0.126
15 | CGGTTGCC | -0.279
16 | CGGAATAG | 0.153
17 | TATCTTCA | 0.234
18 | CAGTGTAC | -0.0288
19 | TAACAATA | 0.394
20 | CGCGTGGC | -0.239
21 | AATTCAGG | 0.124
22 | CTCACAAA | -0.0744
23 | CACAACTA | 0.211
24 | ATGGTTGA | -0.0992
25 | ACGGCCAC | -0.275

Row | Sequence | PBM 8-mer E-score
26 | GTGTGAGA | -0.0546
27 | AATCTACG | 0.0641
28 | AATCAATG | 0.144
29 | GGTGCTAA | -0.0943
30 | CTTCGGAA | -0.12
31 | GACCCCCC | -0.405
32 | ATACTTCG | 0.117
33 | AGCATTTC | -0.0862
34 | CACTTAAA | 0.0563
35 | AGGCTCAC | -0.183
36 | AGAATAAT | 0.411
37 | TCTTGGAA | -0.0259
38 | AGGCCACC | -0.167
39 | TAAAAGCA | 0.251
40 | GGACGAAA | -0.166
41 | CCAACAAC | 0.0904
42 | AAGCGCCG | -0.105
43 | GATCTTGA | 0.00283
44 | ATGTTTGG | 0.144
45 | CCTCTACA | -0.165
46 | AAAGTTGA | 0.252
47 | GCCATGCC | -0.203
48 | GCATTGGA | -0.0184
49 | GAAGGGTA | -0.0926
50 | ATACTAAT | 0.33

Row | Sequence | PBM 8-mer E-score
51 | CAGATATG | 0.131
52 | ATTCTAGC | 0.117
53 | TCAAAGAA | 0.0999
54 | CATAATAC | 0.327
55 | GTGGGTTA | 0.187
56 | ATGTATAA | 0.35
57 | ATGGAAGA | -0.108
58 | CAGGTGGG | -0.15
59 | CAAGATAC | 0.141
60 | ATAAGCAT | 0.166
61 | GGAGATTA | 0.0688
62 | GAAAACAA | 0.282
63 | TGGGCCAA | -0.102
64 | AAGCGATG | -0.0951
65 | ACGGACGG | -0.112
66 | CGATAGGA | -0.177
67 | CACAGCTA | -0.0542
68 | ATGTGGGC | -0.131
69 | CATTACGC | -0.0147
70 | CCCCAGCC | -0.309
71 | CGTCGCCC | -0.188
72 | AATCCCAC | -0.0505
73 | GCTCCAGA | -0.237
74 | CCTTCTTC | -0.341
75 | AATCCTCC | -0.184

Row | Sequence | PBM 8-mer E-score
76 | ACGGCTGA | -0.181
77 | AACTGTCG | -0.0139
78 | AGCGACAC | -0.101
79 | AGCCGACA | -0.108
80 | CTATCTCC | -0.0239
81 | AATCTTCG | 0.0695
82 | CGGTGATC | -0.228
83 | TGAACGCA | -0.114
84 | AAACTAAC | 0.324
85 | ATTAGTCC | 0.0581
86 | AAGACACC | -0.0676
87 | AGACAACA | 0.129
88 | TCTCTCAA | -0.0581
89 | GGAGCGTA | -0.147
90 | ACAAATAT | 0.405
91 | ACTCGTTA | 0.177
92 | AGGTTTGA | 0.0722
93 | AAGAGGAA | -0.065
94 | ACATATTA | 0.44
95 | CTGGTAAG | -0.0354
96 | TCAGCGCA | -0.0216
97 | GATGCGCA | -0.129
98 | GGCGGTAC | -0.101
99 | ATGTGTGG | 0.0279
100 | CGAATTCC | -0.0677

Row | Sequence | PBM 8-mer E-score
101 | AGTCCCAC | -0.11
102 | AAAGCTTA | 0.121
103 | ACAACCAA | 0.0885
104 | GAGCATAC | -0.0435
105 | GCAACAAC | 0.163
106 | CGAAATAA | 0.374
107 | TCACTTCA | 0.0874
108 | ATGCAATA | 0.134
109 | AATAAAAT | 0.388
110 | ATCTCCAC | -0.106
111 | GCCTGGCA | -0.242
112 | GGTGTAGA | -0.0679
113 | AGCACCGG | -0.234
114 | AGCATCCT | -0.323
115 | AGACATCT | 0.0505
116 | GATTCCCA | -0.084
117 | AAGCGTTC | -0.101
118 | CAGGATCC | -0.277
119 | AATTTCCT | 0.105
120 | AGACTATA | 0.266
121 | AGTAAACC | 0.0832
122 | CGACGTCA | -0.129
123 | CAATTAAA | 0.305
124 | CACGGACG | -0.187
125 | CGCTTGCC | -0.327

Row | Sequence | PBM 8-mer E-score
126 | TTAGAGAA | -0.0978
127 | CCCTCAGA | -0.15
128 | ATGCCTCC | -0.229
129 | GGGAGGAC | -0.276
130 | CGGACACA | -0.0158
131 | ACCGAAGT | 0.103
132 | AATAGTCC | 0.12
133 | GAACCCCC | -0.274
134 | CTGTCACC | -0.285
135 | CTTTAAAG | 0.25
136 | CATGTCAG | -0.042
137 | GCTTGGCC | -0.263
138 | CTAGAATC | 0.0185
139 | TCAGCCCA | -0.133
140 | CATCACTC | -0.0746
141 | AGTGAGCC | -0.215
142 | GATCAAAC | -0.0409
143 | AGTTGACG | 0.0458
144 | GAAGCCTA | -0.0743
145 | ACACGAAC | -0.0725
146 | CGTTTCAC | -0.142
147 | CACTAACA | 0.193
148 | ATCGTCAT | -0.113
149 | CGGGGCAA | -0.057
150 | CCCGTACG | -0.15

Row | Sequence | PBM 8-mer E-score
151 | ACGACTGG | -0.131
152 | CCTGCCTC | -0.249
153 | CCTTCAAC | -0.115
154 | GAAGTGAA | -0.0533
155 | GTCCGCTA | -0.0998
156 | AGCGCCCA | -0.25
157 | ACTAGGTG | 0.0588
158 | GCGCATAA | 0.193
159 | ATCTTACC | 0.0512
160 | GCATAGGA | 0.0818
161 | ATCTCCCA | -0.104
162 | ATTAGGTA | 0.257
163 | GCGCCGCA | -0.107
164 | CGCTGCCG | -0.296
165 | GACGGGCC | -0.201
166 | TAACTAAA | 0.312
167 | CCGCGGCC | -0.227
168 | ACGTCTTA | 0.0249
169 | AGAATCTG | -0.0999
170 | GCTAAAAA | 0.141
171 | CACGCATA | -0.0162
172 | CAGAGTAC | -0.0672
